Source: PubChem BioAssay (NCATS)
Inconclusive means that the source gave no clear call. Such entries were picked first, then a sample of the others. For some of these results: No potency is given beside an inconclusive call; the fits are too rough. Calls of active or inactive are those of the source. Unless noted, calls follow the shape of the dose curve; as a rule, active = well fitted curve in the direction sought with a large enough effect; inconclusive = small, poorly fitted or top-dose-only effect, or another doubt; inactive = no such curve, though single readings can be large; an effect the other way counts as inactive or inconclusive.

What was measured:
[1] = test system: Zika virus NS2B-NS3 protease (linked construct); assay: Primary screen NINDS Rhodamine qHTS for Zika virus inhibitors (AID 1347160); also: % is scaled to controls: 0 for no effect and ±100 for the full control effect; nearly all actives have a fitted effect of over 55% in size
Procedure, shortened: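 Single-chain NS2B-NS3 protease, 25 nM, pH 8.0; compounds preincubated 15 min. Activity: Rhodamine110 release from 1.5 microM substrate over 15 min, room temperature, data fitted to 4-parameter Hill.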

[2] = Primary redox qHTS assay for identification of artifact compounds. (AID 1845223);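 also: 0% = DMSO and 100% = reference compound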
Procedure, shortened: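 Redox-cycling detection via DTT (250 uM final) oxidation coupled to Amplex Red (25 uM)/HRP (250 mU/mL) in HBSS. 15 min preincubation plus 30 min after DTT, room temperature. Ex/Em 525/598 nm; 4-parameter Hill fit against DMSO and 10 uM DA3003.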

SKOV3 = assay: Primary qHTS to identify gynecologic anti-cancer compounds using libraries of approved drugs and bioactive compounds (AID 1345084); details: Gynecologic cancer cell panel viability, ATPlite luminescence, 48 h; series mostly up to 57.5 µM; also: nearly all actives have a fitted effect of over 55% in size; also: potency is read from the fitted curve at half-maximal effect; as to activity change, negative = cytotoxicity: % is scaled to controls: 0 for no effect and ±100 for the full control effect
Procedure, shortened: (§1)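 Luminescence from the ATPlite ATP-monitoring reagent indicates viable cell number; lower signal means cytotoxicity. Cells received compound 16 h after seeding and were exposed for 48 h across five concentrations.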

Tov112D = assay: as above; details: Gynecologic cancer cell panel viability, ATPlite luminescence, 48 h; series mostly up to 57.5 µM
Procedure, shortened: as §1

[3] = test system: Zika virus NS2B-NS3 protease (unlinked complex); assay: Primary screen GU Rhodamine qHTS for Zika virus inhibitors: Unlinked NS2B-NS3 protease assay (AID 1347159); details: Recombinant ZIKV NS2B-NS3 protease, Rhodamine110 substrate fluorescence; activity change, negative = inhibition: at 107 µM (top of the series); also: potency is read from the fitted curve at half-maximal effect; nearly all actives have a fitted effect of over 60% in size
Procedure, shortened: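 Unlinked NS2B/NS3, 25 nM; Rhod110 peptide, 1.5 microM; compounds, up to 114 microM. Reaction run 15 min at RT in 10 mM Tris-HCl pH 8.0, 0.01% Tween 20; kinetic fluorescence change fitted with a 4-parameter Hill model.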

[4] = target: Calcium and integrin-binding protein 1 (Homo sapiens) (UniProt Q99828); assay: Primary qHTS for Identification of Calcium Integrin Binding Protein 1 (CIB1) Competitor (AID 1508620);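 also: GST tagged CIB1 binding a fluorescein labelled alphaIIb integrin peptide tracer; top concentration of the series differs between compounds; % is scaled to controls: 0 for no effect and ±100 for the full control effect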
Procedure, shortened: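 Fluorescence polarization competition: GST-tagged CIB1 (1 uM final) preincubated with compound 15 min at room temperature, then FITC-labelled alphaIIb peptide (100 nM final) added. After 15 min at room temperature, polarization read at Ex 480/Em 540.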

[5] = qHTS of pediatric cancer cell lines to identify multiple opportunities for drug repurposing: Primary screen for SK-N-MC cells (AID 1347093); details: SK-N-MC viability, CellTiter-Glo luminescence, 48 h; activity change, negative = cytotoxic: at 46 µM (top of the series);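 also: plate controls were DMSO neutral control for no effect and bortezomib for full effect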
Procedure, shortened: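 Metabolically active cells were quantified by ATP-dependent luminescence (CellTiter-Glo, 15 min at room temperature) following 48 h treatment. Cells had been plated at 500-1,000 per well and settled for 5 h beforehand.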

[6] = qHTS of pediatric cancer cell lines to identify multiple opportunities for drug repurposing: Primary screen for Rh41 cells (AID 1347108);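 also: luminescence drop marks cytotoxic hits; nearly all actives have a fitted effect of over 70% in size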
Procedure, shortened: (§2)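 Phenotypic viability qHTS, 48 h compound exposure, CellTiter-Glo luminescence read-out; multi-concentration dosing so that potency and efficacy derive directly from the primary screen's curves.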

[7] = Drug repurposing screens with cells derived from glioblastoma tumor samples (AID 1345199); details: GBM patient neurospheres viability, ATP luminescence, 48 h; Potency: tumour line A unless noted; activity, negative = cell killing: at 46 µM (top of the series), tumour line A unless noted; also: potency is read from the fitted curve at half-maximal effect; nearly all actives have a fitted effect of over 40% in size
Procedure, shortened: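 Primary testing used CD133+ neurospheres from four GBM patients, seven concentrations, 48 h exposure and ATP-based viability; confirmation added three slower-growing patient lines.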

[8] = P-glycoprotein substrates identified in KB-8-5-11 adenocarcinoma cell line, qHTS therapeutic library screen (AID 1346987); details: activity change, negative = cytotoxicity: at 44.5 µM (top of the series); also: nearly all actives have a fitted effect of over 65% in size; also: potency is read from the fitted curve at half-maximal effect
Procedure, shortened: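 In this qHTS, P-gp-rich KB-8-5-11 cells received library compounds across a concentration range. Viability was quantified by luminescence after 72 h at 37 degree C.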

[9] = Primary qHTS for inhibitors of nuclear receptor binding SET domain protein 2 (NSD2) in an isogenic RCH-ACV NSD2 p.E1099K mutant (9B) (AID 1645876); details: activity change, negative = viability loss: at 44.9 µM (top of the series) unless noted; also: nearly all actives have a fitted effect of over 70% in size
[10] = Primary qHTS for inhibitors of nuclear receptor binding SET domain protein 2 (NSD2) in an RCH-ACV wild type WT cells (2C) (AID 1645877); details: activity change, negative = cell killing: at 44.9 µM (top of the series) unless noted; also: nearly all actives have a fitted effect of over 70% in size
Tov-21-G = assay: Primary qHTS to identify gynecologic anti-cancer compounds using libraries of approved drugs and bioactive compounds (AID 1345084); details: Gynecologic cancer cell panel viability, ATPlite luminescence, 48 h; series mostly up to 57.5 µM; also: nearly all actives have a fitted effect of over 55% in size; also: potency is read from the fitted curve at half-maximal effect; as to activity change, negative = cytotoxicity: % is scaled to controls: 0 for no effect and ±100 for the full control effect
Procedure, shortened: as §1

[11] = qHTS of pediatric cancer cell lines to identify multiple opportunities for drug repurposing: Primary screen for SJ-GBM2 cells (AID 1347091);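 also: plate controls were DMSO neutral control for no effect and bortezomib for full effect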
Procedure, shortened: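 Viability measured as metabolically active cells via CellTiter-Glo luminescence following 48 hours of compound exposure, 11-point dilutions in confirmatory testing. 500-1,000 cells/well plated 5 hours before dosing; controls were DMSO and 2.3 µM bortezomib.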

[12] = qHTS of pediatric cancer cell lines to identify multiple opportunities for drug repurposing: Primary screen for NB1643 cells (AID 1347099); details: NB1643 neuroblastoma viability, CellTiter-Glo luminescence, 48 h; activity change, negative = cytotoxic: at 46 µM (top of the series);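 also: plate controls were DMSO neutral control for no effect and bortezomib positive control for full effect; nearly all actives have a fitted effect of over 50% in size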
Procedure, shortened: as §2

[13] = Primary qHTS for small molecule stabilizers of the endoplasmic reticulum resident proteome: Secreted ER Calcium Modulated Protein (SERCaMP) assay (AID 1508630); details: SH-SY5Y GLuc-SERCaMP (Gaussia luciferase released on ER calcium loss) secretion, thapsigargin, luminescence; activity change, negative = inhibition: at 38.4 µM (top of the series) unless noted; also: % is scaled to controls: 0 for no effect and ±100 for the full control effect
Procedure, shortened: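 The SH-SY5Y reporter protocol was run at 3 concentrations up to 38.3 uM (primary) or 11 concentrations (follow-up): 16 h compound, 100 nM thapsigargin for 4 h, then extracellular luciferase luminescence.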

[14] = target: Cytochrome P450 3A4 (Homo sapiens) (UniProt P08684); assay: Cytochrome P450 family 3 subfamily A member 4 (CYP3A4) small molecule antagonists: luciferase qHTS assay (AID 1645841; active = well fitted curve in the direction sought with a large enough effect in the repeat runs; inconclusive = weak or mixed curves; inactive = no such curve, though single readings can be large; an effect the other way counts as inactive or inconclusive; also: nearly all actives have a fitted effect of over 45% in size)
Procedure, shortened: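 P450-Glo CYP3A4 enzyme with proluciferin substrate preincubated 10 min with compound at room temperature, then NADPH regeneration 1 h. Luciferin detection reagent added for 20 min; luminescence recorded. Ketoconazole positive control.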

[15] = target: Cytochrome P450 2C9 (Homo sapiens) (UniProt P11712); assay: Cytochrome P450 family 2 subfamily C member 9 (CYP2C9) small molecule antagonists: luciferase biochemical (cell-free) qHTS assay (AID 1645842; active = well fitted curve in the direction sought with a large enough effect in the repeat runs; inconclusive = weak or mixed curves; inactive = no such curve, though single readings can be large; an effect the other way counts as inactive or inconclusive; also: % is scaled to controls: 0 for no effect and ±100 for the full control effect; nearly all actives have a fitted effect of over 55% in size)
Procedure, shortened: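 P450-Glo CYP2C9 system: proluciferin substrate with enzyme in mix containing 0.4% BSA, 10 min at room temperature, then NADPH regeneration solution added and incubated 1 h at 37C. Detection reagent stopped reaction; luminescence read after 20 min as RLU.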

[16] = P-glycoprotein substrates identified in KB-3-1 adenocarcinoma cell line, qHTS therapeutic library screen (AID 1346986); also: nearly all actives have a fitted effect of over 60% in size
Procedure, shortened: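 Viability by CellTiter-Glo after 72 h compound exposure at 37 degree C, 5% CO2. Cytotoxic call: curve class -1.1 to -2.4, maximum response >50%, AC50 < 10 uM, compared across KB-3-1 and P-gp-overexpressing KB-8-5-11.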

[17] = Primary fluorescence-based thiol-reactive (MSTI) qHTS assay for identification of artifact compounds. (AID 1845221);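 also: potency is read from the fitted curve at half-maximal effect; thiol-reactive compounds lower the probe fluorescence signal; nearly all actives have a fitted effect of over 65% in size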
Procedure, shortened: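 Compounds were incubated 1 h at room temperature in the dark with the MSTI probe (4 uM) in PBS pH 7.4, 2% DMSO. Signals were normalized between Acetyl-MSTI and MSTI.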
Tags tell the direction and shape of the fitted curve.

UniProt P08684, sequence (P08684 whole entry, looked up): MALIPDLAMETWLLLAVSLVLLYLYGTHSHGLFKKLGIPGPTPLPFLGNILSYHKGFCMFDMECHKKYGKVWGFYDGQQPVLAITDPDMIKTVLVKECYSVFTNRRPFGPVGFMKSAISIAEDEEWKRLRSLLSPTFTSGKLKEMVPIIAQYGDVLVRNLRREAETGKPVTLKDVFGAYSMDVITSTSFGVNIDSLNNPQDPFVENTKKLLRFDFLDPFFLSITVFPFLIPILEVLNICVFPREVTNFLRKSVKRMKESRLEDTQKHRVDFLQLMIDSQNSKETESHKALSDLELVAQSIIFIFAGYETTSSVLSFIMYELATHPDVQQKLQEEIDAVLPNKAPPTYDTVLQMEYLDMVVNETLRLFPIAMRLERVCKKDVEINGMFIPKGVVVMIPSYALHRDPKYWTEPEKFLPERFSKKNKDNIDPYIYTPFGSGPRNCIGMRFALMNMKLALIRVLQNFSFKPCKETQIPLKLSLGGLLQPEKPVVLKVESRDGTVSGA
UniProt P11712, sequence (P11712 whole entry, looked up): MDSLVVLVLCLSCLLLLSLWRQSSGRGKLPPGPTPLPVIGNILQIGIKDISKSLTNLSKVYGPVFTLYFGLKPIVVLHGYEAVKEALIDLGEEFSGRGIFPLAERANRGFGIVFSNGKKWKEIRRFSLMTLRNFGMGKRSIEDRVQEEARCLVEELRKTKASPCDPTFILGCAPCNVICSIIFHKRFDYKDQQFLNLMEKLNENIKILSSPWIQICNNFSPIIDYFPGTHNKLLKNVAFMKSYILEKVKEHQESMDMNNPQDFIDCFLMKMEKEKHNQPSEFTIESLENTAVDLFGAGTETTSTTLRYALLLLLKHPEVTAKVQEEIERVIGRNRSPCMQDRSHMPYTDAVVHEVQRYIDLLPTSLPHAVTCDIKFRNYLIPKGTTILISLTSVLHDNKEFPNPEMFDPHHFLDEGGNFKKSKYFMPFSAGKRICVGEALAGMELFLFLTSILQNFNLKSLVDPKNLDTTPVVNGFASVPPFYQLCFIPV
UniProt Q99828, sequence (Q99828 whole entry, looked up): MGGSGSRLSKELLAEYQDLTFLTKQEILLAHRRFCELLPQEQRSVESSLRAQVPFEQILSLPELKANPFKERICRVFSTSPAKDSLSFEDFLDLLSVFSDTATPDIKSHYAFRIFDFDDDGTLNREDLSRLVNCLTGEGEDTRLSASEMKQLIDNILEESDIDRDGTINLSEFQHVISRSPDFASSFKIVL

CC1(C=O)CC[C@]2(C(=O)O[C@@H]3O[C@H](CO)[C@@H](O)[C@H](O)[C@H]3O)CC[C@]3(C)C(=CCC4[C@@]5(C)C[C@H](O)[C@H](O[C@@H]6OC[C@@H](O)[C@H](O)[C@H]6O)[C@@](C)(CO)C5CC[C@]43C)C2C1 (some centres not stated)
Potency [1]: inactive
redox activity (% of DA3003) [2]: inactive: 8.25% [at 11.5 µM]
activity change, negative = cytotoxicity (SKOV3): inactive: 1.41% [at 11.6 µM]
activity change, negative = cytotoxicity (Tov112D): inactive: -0.249% [at 11.6 µM]

C=C1CCC2C(C)(C)C(O)CCC2(C)C1CCC(C)CCOC(=O)CCC(=O)O (configuration not stated)
Potency [3]: inconclusive [inhibitor, full curve]
Potency [4]: inactive
Potency (SKOV3): inconclusive [cytotoxic, single point]
Potency (Tov112D): inactive

C[N+]1(C)CCC(OC(=O)C(O)(c2ccccc2)C2CCCC2)C1 (configuration not stated)
Potency [5]: inactive
Potency [6]: inactive
Potency (SKOV3): inactive
Potency [7]: inconclusive [inhibitor, partial curve, poor fit]

Cc1ccc2nc(NC(=O)CSc3nc4c(c(=O)n3-c3ccc(F)cc3)SCC4)sc2c1
Potency [8]: inconclusive [inhibitor, partial curve, poor fit]
Potency [3]: inconclusive [inhibitor, single point]
Potency [1]: inactive
Potency (SKOV3): inactive

CC1(C)CC[C@]2(C(=O)OC3OC(CO)C(O)C(O)C3O)CC[C@]3(C)C(=CCC4[C@@]5(C)C[C@@H](O)[C@H](OC6OC(C(=O)O)C(O)C(O)C6O)C(C)(C)C5CC[C@]43C)[C@@H]2C1 (some centres not stated)
activity change, negative = viability loss [9]: inactive: -7.32% [at 9.23 µM]
activity change, negative = cell killing [10]: inactive: -10.4% [at 9.23 µM]
Potency (SKOV3): inconclusive [rising, single point]
activity change, negative = cytotoxicity (Tov-21-G): inactive: 3.24% [at 11.6 µM]

O=C(NN1CCCC1)NS(=O)(=O)c1ccc(Cl)cc1
Potency [11]: inactive
Potency [12]: inactive
Potency [13]: inactive
Potency [14]: inactive
Potency [15]: inactive
Potency [9]: inactive
Potency (SKOV3): inactive
Potency [7]: inconclusive [inhibitor, partial curve]

C[C@@H]1C(=O)O[C@H]2[C@H]1CC[C@@]1(C)C(=O)C=C[C@@](C)(O)[C@H]21
Potency [9]: inactive
Potency [10]: inactive
Potency (SKOV3): inconclusive [rising, full curve, poor fit]
Potency (Tov112D): inactive

COc1cc(/C=C/C(=O)OC[C@H]2O[C@@H](OC3CC(C)=C(C(=O)O)C(C)(C)C3)[C@H](O)[C@@H](O)[C@@H]2O)cc(OC)c1O (some centres not stated)
Potency [16]: inactive
Potency [8]: inactive
Potency [3]: inconclusive [inhibitor, full curve, poor fit]
Potency [17]: active: 3.27 µM
Potency (SKOV3): inactive
